Measurements from PubChem BioAssay AID2675 (National Center for Advancing Translational Sciences (NCATS), 2010).
Among all 280,000 compounds or so, about 100 (0.036%) were called active. Inconclusive results, whose numbers are uncertain, are shown with a selection of clear calls. Calls follow the shape of the dose curve; as a rule, active = well fitted inhibition curve with a large enough effect in the signal ratio, with a control signal flat (not every such curve was filed as active); inconclusive = small, poorly fitted or top-dose-only effect, or effect the other way, or a change in a side signal; inactive = no such curve, though single readings can be large or run the other way; the % refers to the signal ratio. A potency beside an inconclusive call is a rough fit, not a confirmed value. A note “side channel” means that the fit belongs to a control or component signal, not to the main read-out.

Biological target: Muscleblind-like protein 1 (Homo sapiens) (UniProt Q9NR56)
Test: qHTS Assay for Inhibitors of MBNL1-poly(CUG) RNA binding
Details: TR-FRET MBNL1-His/biotin-(CUG)12 binding, 665/545 ratio; activity change, negative = inhibition: at 57.5 µM (top of the series)
In short: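 TR-FRET readout: Ex 340 nm, 665/545 nm emission ratio, normalized to buffer-only (basal) and MBNL1-(CUG)12 controls. Complex of MBNL1-His with Biotin-(CUG)12, compounds 92 nM–58 uM, incubated 60 min at room temperature.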
% is scaled to controls: 0 for no effect and ±100 for the full control effect; potency is read from the fitted curve at half-maximal effect; tags tell the direction and shape of the fitted curve or compound fluorescence and quenching.

Sequence of UniProt Q9NR56 (Q9NR56 whole entry, looked up): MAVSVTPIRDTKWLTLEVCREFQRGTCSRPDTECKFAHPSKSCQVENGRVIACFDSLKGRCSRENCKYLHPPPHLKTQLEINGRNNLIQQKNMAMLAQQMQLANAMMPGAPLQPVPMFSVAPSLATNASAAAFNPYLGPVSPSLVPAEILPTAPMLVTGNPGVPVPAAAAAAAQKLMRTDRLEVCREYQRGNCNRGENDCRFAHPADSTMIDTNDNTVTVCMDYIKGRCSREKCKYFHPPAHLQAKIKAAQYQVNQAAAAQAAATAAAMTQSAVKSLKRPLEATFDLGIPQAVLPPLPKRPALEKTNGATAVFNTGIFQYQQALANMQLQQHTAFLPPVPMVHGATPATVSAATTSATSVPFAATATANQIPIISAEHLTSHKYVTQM

Structure (SMILES) | Potency | activity change, negative = inhibition
COC(=O)c1ccc(NC(=O)C(=O)c2cccn2C)cc1 | inconclusive: 25.1 µM [quencher, side channel, partial curve] | 
CN(C)c1nc(NCc2ccccc2)nc(N/N=C/c2cccc(Br)c2)n1 |  | inactive: 6.53%
N#CC1=C(N)C(C#N)(C#N)[C@H](c2c(F)cccc2F)[C@H]2CC3(CC=C12)OCCO3 | inconclusive: 28.2 µM [quencher, side channel, partial curve, poor fit] | 
O=C1c2cccc3c(O)ccc(c23)C(=O)N1c1ccc(Cl)cc1 | inconclusive: 11.2 µM [quencher, side channel, partial curve] | 
CC(=O)Nc1ccc(N2CCC(C)CC2)c([N+](=O)[O-])c1 | inconclusive: 11.2 µM [quencher, side channel, partial curve] | 
O=C(NCCN1C(=O)S/C(=C\c2cccnc2)C1=O)C1CC(=O)N(Cc2ccco2)C1 (centres undefined) | inconclusive: 31.6 µM [quencher, side channel, partial curve] | 
Cc1ccnc(NS(=O)(=O)c2ccc(NC(=O)Cc3cccs3)cc2)n1 |  | inactive: -3.1%
COc1ccc2oc(=O)c(C(=O)OCC(=O)c3ccc([N+](=O)[O-])cc3)cc2c1 |  | inactive: 22.5%
C/C(=N\Nc1nc(C)c(C)s1)c1ccc([N+](=O)[O-])cc1 | inconclusive: 15.8 µM [quencher, side channel, partial curve] | 
Cc1ccc(C(=O)COC(=O)CCC(=O)NC2CCCCC2)cc1[N+](=O)[O-] | inconclusive: 12.6 µM [quencher, side channel, partial curve] | 
Cc1cccc(C)c1N1C(=O)c2cccc([N+](=O)[O-])c2C1=O | inconclusive: 39.8 µM [quencher, single point] | 
Cc1ccc(C(=O)N/C(=C/c2ccco2)C(=O)NCCCn2ccnc2)cc1 |  | inactive: 14.3%
Cc1cc(C)nc(N(C#N)Cc2cccc([N+](=O)[O-])c2)n1 | inconclusive: 15.8 µM [quencher, side channel, partial curve] | 
CN1C(=O)c2ccc(C(=O)Nc3ccc4c(c3)OCO4)cc2C1=O | inconclusive: 4.47 µM [quencher, side channel, partial curve] | 
COc1ccc(CNC(=O)CN2C(=O)COc3ccc(S(=O)(=O)N4CCCCC4)cc32)cc1 |  | inactive: -1.6%
CCCC(=O)Nc1cccc(NC(=S)NC(=O)C(C)Oc2ccc(Cl)cc2Cl)c1 (centres undefined) | inconclusive: 0.1 µM [fluorescent, side channel, full curve] | 
O=C(NC(Cc1ccccc1)C(=O)O)/C(=C\c1ccco1)NC(=O)c1ccco1 (centres undefined) | inconclusive: 3.55 µM [fluorescent, side channel, single point] | 
Cc1c(-c2cccc(NC(=O)c3cccs3)c2)nc2ncccn12 | inconclusive: 11.2 µM [quencher, side channel, partial curve] | 
O=C1NC2=C(C(=O)c3ccccc32)C(c2ccccc2)N1 (centres undefined) | inconclusive: 12.6 µM [quencher, side channel, partial curve] | 
CC(=O)Nc1c(-c2ccc3ccccc3c2)nc2ccccn12 | inconclusive: 22.4 µM [quencher, side channel, single point] | 

Structure (SMILES) | Potency | activity change, negative = inhibition
COc1ccccc1NC(=O)c1ccccc1S(=O)(=O)c1ccc([N+](=O)[O-])cc1 | inconclusive: 10 µM [quencher, side channel, partial curve] | 
COc1ccc(/C(C)=N/NC(=O)c2ccncc2)cc1[N+](=O)[O-] | inconclusive: 28.2 µM [quencher, side channel, partial curve] | 
O=c1oc2ccccc2cc1C1=Nn2c(nnc2-c2cccnc2)SC1 | inconclusive: 7.94 µM [quencher, side channel, partial curve] | 
FC(F)(F)c1nc2cc3nc4ccccc4[nH]c3cc2n1 | inconclusive: 6.31 µM [quencher, side channel, partial curve] | 
N/C(=N\OC(=O)Cc1cccs1)c1ccc([N+](=O)[O-])cc1 | inconclusive: 11.2 µM [quencher, side channel, partial curve] | 
NC(=O)c1c(NC(=O)CN2CCCC2)sc2c1CCCC2 |  | inactive: 0.466%
O=C1c2cccc3c([N+](=O)[O-])ccc(c23)C(=O)N1O | inconclusive: 11.2 µM [quencher, side channel, partial curve] | 
Cc1cc(F)ccc1S(=O)(=O)Nc1nc2ccccc2nc1Cl |  | inactive: 43.1%
Oc1c(Br)cc(Br)c(/C=N/n2c(-c3ccccc3)n[nH]c2=S)c1Br |  | inactive: -7.43%
CC(C)COC(=O)C(C#N)c1nc2ccccc2nc1N1CCN(Cc2ccccc2)CC1 (centres undefined) |  | inactive: 11.6%
Nc1ccc2c(c1)C/C(=C/c1ccco1)C2=O | inconclusive: 44.7 µM [quencher, side channel, single point] | 
CCOc1ccc(-n2c(N)c(C(=O)NCc3ccco3)sc2=S)cc1 | inconclusive: 4.47 µM [quencher, side channel, full curve] | 
Cc1ccc(CN2CCN(/N=C/C(Br)=C\c3ccccc3)CC2)cc1 | inconclusive: 35.5 µM [quencher, side channel, single point] | 
O=C(N/N=C\c1ccc(Sc2ccccn2)o1)c1cccc(Br)c1 | inconclusive: 39.8 µM [quencher, single point] | 
O=C(c1ccc(Cl)cc1[N+](=O)[O-])N1CCc2ccccc2C1 | inconclusive: 20 µM [quencher, side channel, partial curve] | 
O=C(Oc1ccccc1C(=S)N1CCOCC1)c1cccc([N+](=O)[O-])c1 | inconclusive: 15.8 µM [quencher, side channel, partial curve] | 
CCN(CC)c1ccc(/C=N/NC(=O)c2ccccn2)cc1 | inconclusive: 31.6 µM [quencher, side channel, single point] | 
COc1ccc(-c2nc3ccncc3[nH]2)cc1OC | active: 20 µM | 
CCOP(=O)(OCC)c1nc(-c2cccc([N+](=O)[O-])c2)oc1N1CCCCC1 | inconclusive: 14.1 µM [quencher, partial curve] | 
O=C(N/N=C/c1ccco1)c1cccc(NC(=O)c2ccccc2Cl)c1 | inconclusive: 25.1 µM [quencher, side channel, partial curve] | 

Structure (SMILES) | Potency | activity change, negative = inhibition
CC(NC(=O)Nc1ccc([N+](=O)[O-])cc1)C(c1cccs1)N1CCCC1 (centres undefined) | inconclusive: 10 µM [quencher, side channel, partial curve] | 
O=C(c1ccco1)N(Cc1ccc([N+](=O)[O-])cc1)c1ccc(Cl)cc1 | inconclusive: 0.794 µM [quencher, side channel, full curve, poor fit] | 
N#Cc1ccc2ccn(CC(=O)NC3CCCCCC3)c2c1 |  | inactive: -0.47%
O=C(NCCCN1CCN(c2ccccc2F)CC1)Nc1ccccc1[N+](=O)[O-] | inconclusive: 25.1 µM [quencher, side channel, partial curve] | 
O=[N+]([O-])c1ccc(OCCCn2cncn2)cc1 | inconclusive: 12.6 µM [quencher, side channel, partial curve] | 
CC(=O)c1cc(NC(=O)c2cccc(C(F)(F)F)c2)c(=O)oc1C |  | inactive: -9.01%
O=C(O)CN1C(=O)/C(=C/c2ccc(SCc3ccccc3)o2)SC1=S | inconclusive: 31.6 µM [quencher, side channel, single point] | 
O=C(COc1ccc(/C=N/NS(=O)(=O)c2ccccc2)cc1)N1CCOCC1 | inconclusive: 44.7 µM [quencher, side channel, partial curve, poor fit] | 
Cc1ccc(C)c(/C(O)=C2\C(=O)C(=O)N(CCCn3ccnc3)C2c2cccnc2)c1 (centres undefined) | inconclusive: 22.4 µM [quencher, side channel, single point] | 
CC(=O)Nc1cc(C(=O)OCc2cccc([N+](=O)[O-])c2)ccc1C | inconclusive: 12.6 µM [quencher, side channel, partial curve] | 
Cc1cc(C)c2c(CC(=O)NCCc3ccccc3)coc2c1 |  | inactive: -7.68%
N#Cc1c(C(F)(F)F)cc(-c2ccccc2)n(N)c1=O | inconclusive: 14.1 µM [quencher, side channel, partial curve] | 
O=C(NCC(c1ccco1)N1CCCCC1)c1ccc2c(c1)S(=O)(=O)c1ccccc1C2=O (centres undefined) | inconclusive: 5.62 µM [quencher, side channel, partial curve] | 
CCN1C(=O)C(O)(CC(=O)/C=C/C=C/c2ccccc2)c2ccccc21 (centres undefined) | inconclusive: 8.91 µM [quencher, side channel, partial curve] | 
CC(=O)Nc1ccc(NC(=O)COC(=O)c2cc([N+](=O)[O-])ccc2N2CCOCC2)cc1 | inconclusive: 12.6 µM [quencher, partial curve] | 
O=C1c2cccc3cccc(c23)C(=O)N1c1ccncc1 | inconclusive: 1.78 µM [quencher, side channel, full curve] | 
CCOC(=O)c1c(C)n(-c2ccc(C)cc2)c2c(CC(C)=O)c(Br)c(OC)c(O)c12 |  | inactive: 1.45%
O=C(CCS(=O)(=O)c1cccc2nonc12)NC1CCCCCC1 | inconclusive: 15.8 µM [quencher, side channel, partial curve] | 
O=C(CSc1n[nH]c(-c2ccncc2)n1)c1cccc([N+](=O)[O-])c1 | inconclusive: 14.1 µM [quencher, side channel, partial curve] | 
